According to PubChem BioAssay AID588342 (National Center for Advancing Translational Sciences (NCATS), 2011):
Among all 360,000 compounds or so, about 25,000 (6.9%) were called active. The inconclusive results got no clear call from the source; some entries with a clear call stand among them for comparison. Calls follow the shape of the dose curve; as a rule, active = well fitted inhibition curve with a large enough effect; inconclusive = small, poorly fitted or top-dose-only effect; inactive = flat fitted curve, though single readings scatter. A potency beside an inconclusive call is a rough fit, not a confirmed value.

What follows are molecules tested against Luciferin 4-monooxygenase (Photinus pyralis) (UniProt P08659) (assay: qHTS profiling assay for firefly luciferase inhibitor/activator using purifed enzyme and Km concentrations of substrates (counterscreen for miR-21 project)). Settings: purified FLuc, luminescence inhibition; series mostly up to 57.5 µM.
In short: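 Purified P. pyralis luciferase (10nM final) with 10uM D-luciferin and 10uM ATP (Km levels) in 50mM Tris acetate pH 7.5, 10mM Mg acetate, 0.01% Tween-20, 0.05% BSA; qHTS 6-point titration, ~60 µM downward; luminescence read.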
Also: nearly all actives have a fitted effect of over 55% in size.
Potency is read from the fitted curve at half-maximal effect; tags tell the direction and shape of the fitted curve.

UniProt P08659, sequence (P08659 whole entry, looked up): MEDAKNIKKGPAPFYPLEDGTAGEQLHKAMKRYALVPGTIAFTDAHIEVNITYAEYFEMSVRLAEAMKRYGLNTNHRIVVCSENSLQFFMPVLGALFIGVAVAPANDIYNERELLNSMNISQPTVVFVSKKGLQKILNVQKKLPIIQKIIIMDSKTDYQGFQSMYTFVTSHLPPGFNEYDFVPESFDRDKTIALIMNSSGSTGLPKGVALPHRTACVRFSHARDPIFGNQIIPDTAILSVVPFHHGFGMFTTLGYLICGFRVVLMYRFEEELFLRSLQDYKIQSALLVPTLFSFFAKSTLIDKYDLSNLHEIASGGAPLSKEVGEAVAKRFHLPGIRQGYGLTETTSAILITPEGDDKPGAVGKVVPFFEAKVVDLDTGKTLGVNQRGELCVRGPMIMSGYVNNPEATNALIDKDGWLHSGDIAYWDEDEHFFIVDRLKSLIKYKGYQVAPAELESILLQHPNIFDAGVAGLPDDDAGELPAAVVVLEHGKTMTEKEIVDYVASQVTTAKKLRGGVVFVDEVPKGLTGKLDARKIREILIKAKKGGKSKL

| SMILES | Potency |
| --- | --- |
| CCCOc1cccc(-c2cc(C(=O)NN)c3ccccc3n2)c1 | active: 21.3 µM |
| O=C(Nc1cccc2cccnc12)c1ccc2c(c1)OCCO2 | active: 12 µM |
| COc1ccccc1/C=C/C=N/NC(=O)c1ccccn1 | active: 8.49 µM |
| c1ccc(COc2ccc(CNCc3cccnc3)cc2)cc1 | inconclusive: 30.1 µM [inhibitor, partial curve, poor fit] |
| O=C(c1cc2cc(Br)ccc2o1)N1CCN(c2ccccc2)CC1 | active: 19 µM |
| Cc1cc(C)n(CCc2nc(-c3cccs3)cs2)n1 | inconclusive: 37.9 µM [inhibitor, partial curve, poor fit] |
| CCc1ccc2oc(-c3cccc(NC(=O)COc4ccccc4Cl)c3)nc2c1 | inconclusive: 10.7 µM [inhibitor, partial curve, poor fit] |
| CCOc1ccc2nc(N3CCCC(C(=O)Nc4ccc(CC)cc4)C3)sc2c1 (stereo not given) | inconclusive: 12 µM [inhibitor, partial curve] |
| CCCNC(=S)Nc1ccc(Br)cc1 | inconclusive: 37.9 µM [inhibitor, partial curve, poor fit] |
| Cc1csc(NC(=O)c2nc3nccc(C)n3n2)n1 | inconclusive: 23.9 µM [inhibitor, single point] |
| CCOC(=O)/C(C#N)=C/c1ccc(OC(=O)c2ccccn2)cc1 | inactive |
| Cc1ccc(/C(O)=C/C(=O)C(=O)NC23CC4CC(CC(C4)C2)C3)cc1 | active: 16.9 µM |
| Cc1c(C(=O)O)cccc1-c1ccc(C=O)o1 | inconclusive: 30.1 µM [inhibitor, partial curve, poor fit] |
| c1ccc2c(c1)nc(CN1CCOCC1)n1c3ccccc3nc21 | inconclusive: 30.1 µM [inhibitor, single point] |
| CCOc1cccc(CNC(=O)c2ccc(N3CCCC3)c(NC(=O)Nc3ccccc3CC)c2)c1 | inactive |
| CCC1CN(C(=O)NCc2ccc(F)cc2)c2cc(Cl)ccc2O1 (stereo not given) | inconclusive: 23.9 µM [inhibitor, partial curve] |
| CCc1cc2cc(OC)ccc2nc1SCC(=O)Nc1cc(OC)c(OC)cc1C(=O)O | inconclusive: 30.1 µM [inhibitor, single point] |
| CC(C)c1ccc(NC(=O)Cc2ccc(NC(=O)N3CCCCc4ccccc43)cc2)cc1 | inconclusive: 7.57 µM [inhibitor, partial curve] |
| CCOc1cc(/C=N/NC(=O)c2cc(C)n(-c3ccc(F)cc3)c2C)ccc1O | inconclusive: 26.9 µM [inhibitor, partial curve] |
| CC(C)CC1NC(=O)N(Cc2nc3ccccc3s2)C1=O (stereo not given) | inactive |
| O=C(Nc1ccc(OCC(F)(F)C(F)F)c(C(F)(F)F)c1)c1ccccc1O | active: 21.3 µM |
| CCOc1ccccc1NC(=O)CSc1ccc(-c2ccco2)nn1 | inconclusive: 26.9 µM [inhibitor, partial curve, poor fit] |
| CCCC(=O)Nc1nc(-c2ccc3c(c2)CCN3S(C)(=O)=O)cs1 | inconclusive: 23.9 µM [inhibitor, partial curve, poor fit] |

| SMILES | Potency |
| --- | --- |
| CCOC(=O)c1ccc(NC(=O)CSc2nc(-c3ccc(F)cc3)cc(C(F)(F)F)c2C#N)cc1 | inactive |
| COCc1nc2oc3ccc(F)cc3c(=O)c2cc1C(=O)OC | inconclusive: 10.7 µM [inhibitor, partial curve, poor fit] |
| O=c1c2ccccc2nc(-c2cccs2)n1-c1ccc2ccccc2c1 | inconclusive: 30.1 µM [inhibitor, single point] |
| O=C(NCc1ccccn1)c1cc(-c2ccc(Br)cc2)nc2ccccc12 | inconclusive: 4.78 µM [inhibitor, full curve] |
| CN(CC(=O)NCCc1ccc(F)cc1)Cc1cccc(Cl)c1 | inactive |
| COC(=O)Cn1c(O)c(N=NC(=O)CNC(=O)c2ccncc2)c2ccccc21 | inactive |
| COc1ccc(NC(=O)c2cccn2-c2nnc(N3CCCCC3)s2)c(OC)c1 | inconclusive: 16.9 µM [inhibitor, partial curve] |
| Oc1ccc(N=Nc2n[nH]c(-c3ccc(Br)cc3)n2)cc1 | active: 7.57 µM |
| CCOC(=O)COc1cc(C)c(Cl)cc1C(=O)c1ccn2nc(-c3ccc(OC)cc3)cc2n1 | inconclusive: 30.1 µM [inhibitor, partial curve, poor fit] |
| CCCCn1c(NCc2ccc3c(c2)OCO3)nc2ccccc21 | inconclusive: 26.9 µM [inhibitor, partial curve, poor fit] |
| COc1ccc2[nH]c3c4c(ccc3c2c1)C(=O)C=CC4=O | inconclusive: 6.01 µM [inhibitor, full curve] |
| O=C(CSc1cccc2cccnc12)OCC(=O)c1ccccc1 | inconclusive: 23.9 µM [inhibitor, single point] |
| CC(C)CNC(=S)NC(=O)c1ccc([N+](=O)[O-])cc1 | inconclusive: 37.9 µM [inhibitor, partial curve, poor fit] |
| COc1ccc2c(c1)C(=NO)c1cc(OC)ccc1-2 | inconclusive: 21.3 µM [inhibitor, single point] |
| CC(Sc1nc2ccccc2s1)C(=O)N1CCOCC1 (stereo not given) | inconclusive: 26.9 µM [inhibitor, partial curve, poor fit] |
| COc1cccc(NC(=O)C(c2ccccc2)N2CCNC(=O)C2)c1 (stereo not given) | inactive |
| O=C1NN(c2ccc(F)cc2)C(=O)/C1=C/c1cccs1 | active: 23.9 µM |
| O=C(Nc1ncn[nH]1)c1ccc(Cl)cc1Cl | inactive |
| Cn1c(SCC(=O)Nc2nc3ccccc3s2)ncc(C(=O)Nc2ccc(Cl)cc2)c1=O | inconclusive: 16.9 µM [inhibitor, partial curve, poor fit] |
| Cc1[nH]c2ccc(C(=O)Nc3ccncc3)cc2c1C | active: 16.9 µM |
| CN1CCN(Cc2nc(N)nc(Nc3ccc4c(c3)OCCO4)n2)CC1 | inconclusive: 16.9 µM [inhibitor, partial curve] |
| O=C(CCCN1C(=O)/C(=C/c2ccccc2Cl)SC1=S)Nc1ccccn1 | inconclusive: 30.1 µM [inhibitor, single point] |
